According to a collection of fitness landscapes (doi:10.1126/science.1257360):
The other results are listed elsewhere or left out.

B1: PhoQ; a variant is named by its letters at X, in order, P23837 (parent)
chain: MKKLLRLFFPLSLRVRFLLATAAVVLVLSLAYGMVALIGYSVSFDKTTFRLLRGESNLFYTLAKWENNKLHVELPENIDKQSPTMTLIYDENGQLLWAQRDVPWLMKMIQPDWLKSNGFHEIEADVNDTSLLLSGDHSIQQQLQEVREDDDDAEMTHSVAVNVYPATSRMPKLTIVVVDTIPVELKSSYMVWSWFIYVLSANLLLVIPLLWVAAWWSLRPIEALAKEVRELEEHNRELLNPATTRELTSLVRNLNRLLKSERERYDKYRTTLTDLTHSLKTPLXXLQXXLRSLRSEKMSVSDAEPVMLEQISRISQQIGYYLHRASMRGGTLLSRELHPVAPLLDNLTSALNKVYQRKGVNISLDISPEISFVGEQNDFVEVMGNVLDNACKYCLEFVEISARQTDEHLYIVVEDDGPGIPLSKREVIFDRGQRVDTLRPGQGVGLAVAREITEQYEGKIVAGESMLGGARMEVIFGRQHSAPKDE

Variants of: B1
Assay: enrichment ratio after two sorts for PhoP signalling (ratio (wild type AVST 3.29)); higher = more functional
Details: with PhoP (E. coli)

Variant	enrichment ratio
DKGP	≤ 0.25
QKTF	≤ 0.25
YEHW	≤ 0.25
VRNG	≤ 0.25
QAPV	≤ 0.25
RISP	≤ 0.25
ADPM	≤ 0.25
AYKY	≤ 0.25
PIGK	≤ 0.25
SCGE	3.51
TIGE	4.31
PFYC	≤ 0.25
ETPH	≤ 0.25
YEFI	≤ 0.25
AAIY	≤ 0.25
HHLA	≤ 0.25
DRVH	≤ 0.25
NFKN	≤ 0.25
VIVN	≤ 0.25
VGYY	≤ 0.25
SDHS	≤ 0.25
IQSH	≤ 0.25
GKDS	≤ 0.25
MNYD	≤ 0.25

Variant	enrichment ratio
QGCR	≤ 0.25
LANA	≤ 0.25
SKTK	≤ 0.25
QDQW	≤ 0.25
HMEY	≤ 0.25
SIEV	0.267
TPFN	≤ 0.25
GKYW	≤ 0.25
KETV	≤ 0.25
YCTN	≤ 0.25
ERGQ	≤ 0.25
YADP	≤ 0.25
PGEE	≤ 0.25
PYGF	≤ 0.25
INRW	≤ 0.25
EIDD	≤ 0.25
RFHE	≤ 0.25
YDER	≤ 0.25
SSFE	≤ 0.25
WFPK	≤ 0.25
NIMH	≤ 0.25
RDIY	≤ 0.25
QQTQ	≤ 0.25
PTLY	≤ 0.25

Variant	enrichment ratio
TNYC	≤ 0.25
ICNR	≤ 0.25
DDKW	≤ 0.25
TAKL	≤ 0.25
IVWY	≤ 0.25
GKAG	≤ 0.25
DKCV	≤ 0.25
YYNS	≤ 0.25
WNWL	≤ 0.25
KDLE	≤ 0.25
QMLH	≤ 0.25
WRSK	≤ 0.25
WSDP	≤ 0.25
TSYA	7.28
PHPP	≤ 0.25
KQQC	≤ 0.25
KYCA	≤ 0.25
IFHF	≤ 0.25
TVLF	≤ 0.25
GVFR	≤ 0.25
NPWY	≤ 0.25
ERIV	≤ 0.25
MTQR	≤ 0.25
FCII	≤ 0.25

Variant	enrichment ratio
VGSW	≤ 0.25
GMLY	≤ 0.25
INEW	≤ 0.25
FCLD	≤ 0.25
ARML	7.51
VHYW	≤ 0.25
YVPQ	≤ 0.25
KESR	≤ 0.25
ETVF	≤ 0.25
VRTI	≤ 0.25
MTGL	7.07
LPAI	≤ 0.25
PPVK	≤ 0.25
PMSY	≤ 0.25
DWPE	≤ 0.25
QLIE	≤ 0.25
HFVV	≤ 0.25
DCCP	≤ 0.25
IRVM	≤ 0.25
RMEH	≤ 0.25
ANNR	≤ 0.25
WLSP	≤ 0.25
SDRP	≤ 0.25
LRWI	≤ 0.25

Variant	enrichment ratio
TDWK	≤ 0.25
TDYG	≤ 0.25
LTWC	≤ 0.25
DCWP	1.12
SCDV	≤ 0.25
NDVY	≤ 0.25
HRAN	≤ 0.25
DPKY	≤ 0.25
EGTR	≤ 0.25
MRRH	≤ 0.25
QMFC	≤ 0.25
FLCY	≤ 0.25
FTAQ	≤ 0.25
LPEP	≤ 0.25
PQME	≤ 0.25
YSPT	≤ 0.25
EFKE	≤ 0.25
LGSC	≤ 0.25
TLPN	≤ 0.25
SQFW	≤ 0.25
MNMW	≤ 0.25
WDTV	≤ 0.25
WSSD	≤ 0.25
RDPN	≤ 0.25

Variant	enrichment ratio
LQKG	≤ 0.25
RHDK	≤ 0.25
RFSA	≤ 0.25
AMQR	≤ 0.25
NYHL	≤ 0.25
QRFS	≤ 0.25
IDQN	≤ 0.25
VYYD	≤ 0.25
WIQV	≤ 0.25
QMPH	≤ 0.25
NIRP	≤ 0.25
EDTR	≤ 0.25
FDLL	≤ 0.25
FSQI	≤ 0.25
YDRR	≤ 0.25
FGEY	≤ 0.25
STFT	≤ 0.25
IKHE	≤ 0.25
NFYL	≤ 0.25
PMEV	≤ 0.25
NLEN	≤ 0.25
DRRK	≤ 0.25
KETA	≤ 0.25
EQEY	≤ 0.25

Variant	enrichment ratio
PACC	≤ 0.25
AIMN	5.77
PFKM	≤ 0.25
TKDV	≤ 0.25
SRHD	≤ 0.25
LWCC	≤ 0.25
KLNM	≤ 0.25
RQLD	≤ 0.25
GFML	≤ 0.25
ANPH	≤ 0.25
FSMQ	3.93
TVGK	2.73
TPGY	≤ 0.25
QFDR	≤ 0.25
PIWI	≤ 0.25
IGSH	≤ 0.25
VKLV	≤ 0.25
SLMP	≤ 0.25
HPRM	≤ 0.25
KKVH	≤ 0.25
SGAW	≤ 0.25
MPQY	≤ 0.25
YFPM	≤ 0.25
WILW	≤ 0.25

Variant	enrichment ratio
FCVY	≤ 0.25
DHCT	≤ 0.25
AFKI	≤ 0.25
AYIR	≤ 0.25
ICKC	≤ 0.25
RETP	≤ 0.25
NYCF	≤ 0.25
ATIA	1.45
PTPI	≤ 0.25
RLAN	0.869
EEKK	≤ 0.25
RKNL	≤ 0.25
IAGC	≤ 0.25
MYHS	≤ 0.25
KSCA	≤ 0.25
QKAG	≤ 0.25
FGEN	≤ 0.25
RCFE	≤ 0.25
LMTH	≤ 0.25
DGET	≤ 0.25
GPDS	≤ 0.25
DGAD	≤ 0.25
TANV	17.9
NTPP	≤ 0.25

Variant	enrichment ratio
RNLS	≤ 0.25
QGCI	19.5
GDGG	≤ 0.25
HHHM	≤ 0.25
GIKV	≤ 0.25
SMGR	≤ 0.25
EGNF	≤ 0.25
EDLL	≤ 0.25
YTCV	≤ 0.25
VDNL	≤ 0.25
QQGG	≤ 0.25
WMAL	≤ 0.25
TWLP	≤ 0.25
SHIS	≤ 0.25
DTGS	≤ 0.25
AFYP	≤ 0.25
RCGL	≤ 0.25
KNCS	≤ 0.25
VIDR	≤ 0.25
GRAT	≤ 0.25
HCHK	≤ 0.25
IANA	≤ 0.25
WMTG	≤ 0.25
GQYK	≤ 0.25

Variant	enrichment ratio
WSNS	≤ 0.25
FPYK	≤ 0.25
PNEQ	≤ 0.25
GTFK	≤ 0.25
VCVL	≤ 0.25
FYEF	≤ 0.25
IETG	≤ 0.25
GTDV	≤ 0.25
GNMK	≤ 0.25
HHNI	≤ 0.25
LRLH	≤ 0.25
ACLN	13.6
PCTI	≤ 0.25
FVYS	≤ 0.25
RFAE	≤ 0.25
VLIE	≤ 0.25
THND	29.6
WWSE	≤ 0.25
YTFG	≤ 0.25
LSKG	≤ 0.25
KWPS	≤ 0.25
NHQI	≤ 0.25
WCPW	≤ 0.25
DNNA	≤ 0.25

Variant	enrichment ratio
GFMP	≤ 0.25
PNKY	≤ 0.25
EPHC	≤ 0.25
QCPH	≤ 0.25
SPGC	≤ 0.25
APMQ	≤ 0.25
LDTW	≤ 0.25
VKDS	≤ 0.25
VRWF	≤ 0.25
RYIR	≤ 0.25
TWQC	≤ 0.25
PCKY	≤ 0.25
HESE	≤ 0.25
GKAQ	≤ 0.25
IQAM	≤ 0.25
IRAM	≤ 0.25
AYNS	≤ 0.25
RICA	≤ 0.25
AHQL	≤ 0.25
SNNP	≤ 0.25
PYPC	≤ 0.25
DVII	≤ 0.25
YGGM	≤ 0.25
SVEL	≤ 0.25

Variant	enrichment ratio
FQQG	≤ 0.25
EAQH	≤ 0.25
ANNM	12.9
ERPM	≤ 0.25
LCLT	≤ 0.25
PYMI	≤ 0.25
HAFL	≤ 0.25
VEIT	≤ 0.25
IAKW	≤ 0.25
HPPL	≤ 0.25
GNIA	≤ 0.25
LHIL	≤ 0.25
DNSN	≤ 0.25
IGNM	≤ 0.25
WDWL	≤ 0.25
GWLY	≤ 0.25
TSIR	≤ 0.25
FDLN	≤ 0.25
QCSN	17.6
DDPI	≤ 0.25
IFHY	≤ 0.25
WQNS	≤ 0.25
QAYA	≤ 0.25
TKNC	8.5

Variant	enrichment ratio
IEIE	≤ 0.25
HQQP	≤ 0.25
YKYK	≤ 0.25
TEWM	73.1
LDEM	≤ 0.25
MAMQ	≤ 0.25
SYPW	≤ 0.25
DMDS	≤ 0.25
FLAA	≤ 0.25
WPYW	≤ 0.25
NFDF	≤ 0.25
AVRF	≤ 0.25
KMVR	≤ 0.25
KLVT	≤ 0.25
EQSQ	≤ 0.25
NDIF	≤ 0.25
NHNM	≤ 0.25
LPEW	≤ 0.25
